According to PubChem BioAssay AID651820 (National Center for Advancing Translational Sciences (NCATS), 2012):
Hit rate of the full screen: of about 340,000 compounds, about 12,000 (3.5%) were called active. Inconclusive means that the source gave no clear call. Such entries were picked first, then a sample of the others. The call rests on the fitted dose curve; in most records, active means well fitted inhibition curve with a large enough effect; inconclusive means small, poorly fitted or top-dose-only effect, or another doubt; inactive means no such curve, though single readings can be large or run the other way. No potency is given beside an inconclusive call; the fits are too rough.

Experiment: qHTS Assay for Inhibitors of Hepatitis C Virus (HCV)
Conditions: Huh7.5.1 HCVcc-Cre (HCVcc is cell-culture hepatitis C virus) infection, luciferase reporter, 44 h; activity change, negative = inhibition: at 41.8 µM (top of the series) unless noted
Procedure, shortened: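 After 44 h co-culture of compound, cells and HCVcc-Cre (~0.5 moi), substrate is added for 15 min at room temperature and luciferase measured over 15 sec. Cells were seeded at 1,000/well and pre-cultured 4 h.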
On the % scale 0 is the no-effect control and ±100 the full control effect; potency means the concentration at half of the fitted maximal effect; tags describe the fitted curve by direction and shape.

Row | SMILES | activity change, negative = inhibition | Potency
1 | COc1ccc(/C=C/C(=O)OCC(=O)NC(=O)NC(C)(C)C)cc1 | inactive: 1.63% | –
2 | COC(=O)[C@]1(CC(C)C)N[C@H](c2ccc(-c3ccc(OC)cc3)cc2)[C@@H]2C(=O)N(C)C(=O)[C@@H]21 | – | inconclusive [inhibitor, partial curve, poor fit]
3 | CCC(=O)Nc1sc2c(c1C#N)CCCCC2 | – | inconclusive [inhibitor, full curve]
4 | CCOC(=O)C1CCN(C(=O)c2cc3c(-c4ccc(OC)c(OC)c4)nn(C)c3s2)CC1 | inactive: -15.4% | –
5 | O=C(c1cnn2c(C(F)F)cc(-c3ccccc3)nc12)N1CCc2ccccc21 | – | inconclusive [inhibitor, single point]
6 | COc1cccc(CN(CC2CCCO2)S(=O)(=O)c2ccc(-n3cnnn3)c(OC)c2)c1 (configuration not stated) | inactive: -16.9% | –
7 | Cc1cccc(/C=N/NC(=O)c2ccccc2OCc2cccc(Br)c2)n1 | – | inconclusive [inhibitor, single point]
8 | O=C(Cc1ccc(NC(=O)C2CCN(C(=O)C3CCC3)CC2)cc1)Nc1cccc(C(=O)N2CCCC2)c1 | – | inconclusive [inhibitor, single point]
9 | Cn1c(-c2ccccc2)c(C(=O)CC#N)c2ccccc21 | – | inconclusive [inhibitor, partial curve]
10 | O=C1c2[nH]nc(-c3ccccc3O)c2C(c2cccc(Cl)c2)N1Cc1ccco1 (configuration not stated) | – | active: 12.6 µM
11 | O=C1c2cccc3cc([N+](=O)[O-])cc(c23)C(=O)N1CC1CCCO1 (configuration not stated) | – | inconclusive [inhibitor, partial curve]
12 | COC(=O)c1ccc(/C=C/c2c(-c3ccsc3)sc3ccccc23)cc1 | – | active: 10 µM
13 | O=C1CCCc2c1[nH]c1ccc(Br)cc21 | – | inconclusive [inhibitor, partial curve]
14 | CC(C)OCCCNC(=O)c1c(N)n(/N=C/c2cccs2)c2nc3ccccc3nc12 | – | inconclusive [inhibitor, single point]
15 | CC1=Nc2cc(C(=O)N3CCCC3)ccc2Sc2ccc(C)cc21 | inactive: 0.865% | –
16 | CCc1cc2c(=O)c(-c3cnn(-c4ccccc4)c3)c(C)oc2cc1OCC(=O)Nc1ccc(F)c(F)c1 | – | inconclusive [inhibitor, single point]
17 | Cc1ccc(Nc2nc(N)c([N+](=O)[O-])c(N3CCC(C)CC3)n2)cc1C | – | inconclusive [inhibitor, single point]
18 | CN1CCN(c2ccccc2NC(=O)c2ccc(-c3ccc(Br)cc3)o2)CC1 | – | inconclusive [inhibitor, single point]
19 | NS(=O)(=O)c1cccc(NC(=O)CSc2nn(-c3ccccc3)c(=S)s2)c1 | – | inconclusive [inhibitor, full curve]
20 | COc1ccc(Br)cc1C1CC(=O)N2CN(C)CSC2=C1C#N (configuration not stated) | inactive: 4.34% | –
21 | O=c1[nH]c(N/N=C/c2ccc(O)cc2)nc2ccccc12 | inactive: 6.29% | –
22 | CC(=O)Nc1ccc(NC(=O)C(C)OC(=O)c2ccc(-n3cnnn3)cc2)cc1 (configuration not stated) | – | inconclusive [inhibitor, single point]
23 | CCOC(=O)c1c(NC(=S)Nc2ccccc2)sc2c1CC(C)(C)SC2 | – | inconclusive [inhibitor, full curve]
24 | COc1ccc(Cc2nnc(NC(=O)c3ccc(OC)cc3OC)s2)cc1 | inconclusive: -33% [inhibitor] | –

Row | SMILES | activity change, negative = inhibition | Potency
25 | CCN(CC)c1ccc(/C=N/NC(=O)c2nnn(-c3nonc3N)c2C(C)C)c(O)c1 | – | active: 1.12 µM
26 | CCc1ccc(-c2cn3nc(-c4ccccc4)cnc3n2)cc1 | inactive: -8.1% | –
27 | CCC(C)[C@H](NC(=O)N1CC(=O)Nc2ccccc21)C(=O)N1CCC[C@@H]1C(=O)O (some centres not stated) | – | inconclusive [inhibitor, single point]
28 | CSc1nc2c(c(-c3ccc(O)cc3)c1C#N)CCC2 | – | inconclusive [inhibitor, single point]
29 | Cc1ccc2nc(N(CCCN(C)C)C(=O)c3ccc(Br)s3)sc2c1 | – | active: 10 µM
30 | COc1ccc(CN2CCCC(C(=O)Nc3cccc(-n4cnnn4)c3)C2)c(C)c1C (configuration not stated) | – | inconclusive [inhibitor, partial curve]
31 | CC(=O)c1ccc(S(=O)(=O)N2CCN(c3ccccc3F)CC2)cc1 | – | inconclusive [inhibitor, partial curve]
32 | CC[C@]12CCCN3CCc4c(n(c5ccccc45)C(=O)C1)[C@@H]32 | – | active: 6.31 µM
33 | CC(C)Sc1cc(N2CCCC2)nc(-c2ccccc2)n1 | – | inconclusive [inhibitor, partial curve]
34 | CCNc1nc(NC(C)C)nc(NC(C)(C)C)n1 | – | inconclusive [inhibitor, partial curve]
35 | CCOc1ccc2c(c1)c(N=O)c(O)n2C | inactive: -0.572% | –
36 | Cc1cc(NCCN2CCOCC2)n2nc(C)c(-c3ccccc3)c2n1 | – | inconclusive [inhibitor, single point]
37 | CN(C)C(=O)CCc1ccc2c3c([nH]c2c1)[C@]1(CCC2CCCC2)[C@@H](C(=O)N2CCOCC2)C[C@H](CC(=O)NCCN2CCOCC2)C(=O)N1CC3 | – | active: 0.316 µM
38 | Cc1ccc(C(=O)NC2CCCC2)cc1S(=O)(=O)N1CCCCC1 | – | inconclusive [inhibitor, single point]
39 | OCCOCCNc1ncnc2sc(-c3ccccc3)cc12 | – | inconclusive [inhibitor, partial curve]
40 | CN(CC(=O)Nc1nc2ccc(F)cc2s1)S(=O)(=O)c1ccc(Cl)cc1 | – | inconclusive [inhibitor, partial curve]
41 | Cc1ccc(Nc2nc(COC(=O)C3CC3)cs2)cc1 | inactive: -5.01% | –
42 | NC(=O)c1[nH]cnc1N | – | inactive
43 | CCOC(=O)c1c(C)[nH]c(C(=O)CN2C(=O)NC(C)(CC(C)C)C2=O)c1C (configuration not stated) | – | inconclusive [inhibitor, single point]
44 | CCN(CC)CCNc1nc(SC)nc2sc3c(c12)CCN(C)C3 | – | inconclusive [inhibitor, partial curve]
45 | Cc1cccc(-c2nnc(SCc3cc(=O)[nH]c4ccccc34)n2C)c1 | inactive: 10.6% | –
46 | COc1cc2c3cc1Oc1c(OC)c(OC)cc4c1[C@H](Cc1ccc(cc1)Oc1cc(ccc1O)C[C@H]3N(C)CC2)N(C)CC4 | – | active: 11.2 µM
47 | CCn1cc(C(=O)NCCC(C)C)c(=O)c2cc(F)c(N3CCN(C)CC3)cc21 | – | inconclusive [inhibitor, single point]
48 | N#C/C(=C\N1CCN(Cc2ccc3c(c2)OCO3)CC1)c1nc2ccccc2s1 | – | active: 14.1 µM

Row | SMILES | activity change, negative = inhibition | Potency
49 | CCCC(=O)Nc1nnc(/C=C/c2ccc(OC)cc2)s1 | inactive: -14% | –
50 | O=C1CN(CC(=O)NC2CCCc3ccccc32)CCN1 (configuration not stated) | inactive: 7.04% | –
51 | Cc1cc(C)c(C(=O)Cn2cnc3cc([N+](=O)[O-])ccc3c2=O)cc1C | – | inconclusive [inhibitor, full curve, poor fit]
52 | O=C(Nc1ccc(C(=O)O)cc1)/C(=C\c1ccco1)NC(=O)c1ccccc1 | inactive: -0.255% | –
53 | COC(=O)c1ccccc1C(=O)N1CC(O)CO1 (configuration not stated) | inactive: 11.6% | –
54 | O=[N+]([O-])c1cc2c(cc1/C=N/NS(=O)(=O)c1ccc(Br)cc1)OCO2 | – | inconclusive [inhibitor, single point]
55 | O=C1C(Cl)=C(NCCN2CCCCC2)C(=O)c2ccccc21 | – | active: 7.94 µM
56 | CCN1CCN(Cc2ccc(C)cc2)CC1 | inactive: 6.2% | –
57 | COc1ccccc1NC(=O)Nc1nc(CC(=O)N2CCN(c3ccccc3)CC2)cs1 | – | active: 12.6 µM
58 | CCOC(=O)c1sc(NC(=O)CS(=O)(=O)c2ccc(C)cc2)nc1C | – | inconclusive [inhibitor, single point]
59 | Cc1ccc(S(=O)(=O)N(C)c2ccc(OCC(=O)Nc3nc(-c4ccccc4)cs3)cc2)cc1 | – | inconclusive [inhibitor, single point]
60 | C=CCc1cccc(CNc2c(C)n(C)n(-c3ccccc3)c2=O)c1O | – | active: 31.6 µM
61 | CCOc1cc(/C=C/C(=O)OCC(=O)NCc2ccco2)cc(Cl)c1OC | – | inconclusive [inhibitor, full curve]
62 | COC(=O)c1sc2nc(-c3ccccc3)c3c(c2c1N)CCCC3 | – | inconclusive [inhibitor, partial curve]
63 | NC(=O)CCC(NC(=O)c1ccc(Cl)cc1)C(=O)NCCc1ccc2c(c1)OCCO2 (configuration not stated) | inactive: 4.03% | –
64 | CC[C@@]1(C(=O)OC)N[C@H](CN(C)C(=O)Nc2ccc(C)cc2)[C@@H]2C(=O)N(C)C(=O)[C@@H]21 | – | inconclusive [inhibitor, single point]
65 | Fc1ccc(Nc2ncnc3sccc23)cc1 | inactive: -0.0776% | –
66 | O=C(N/N=C/c1ccccn1)c1cc(-c2ccccc2)nc2ccccc12 | inactive: 10.6% | –
67 | Cc1ccc(NC(=O)c2sc3nc(C)nc(N4CCN(c5ccccn5)CC4)c3c2C)c(C)c1 | inactive: 2.91% | –
68 | C/C(=N/Nc1nc(C)cc(-c2ccccc2)n1)c1ccco1 | – | inconclusive [inhibitor, partial curve]
69 | CCCn1nc(NS(=O)(=O)c2ccc(F)cc2)c2cc3ccccc3nc21 | – | inconclusive [inhibitor, single point]
70 | CC(C)(C)n1nnnc1C(c1ccncc1)N1CCN(C2CCCCC2)CC1 (configuration not stated) | inactive: 9.73% | –
71 | CC(C)c1ccc(C2(C)NC(=O)N(CC(=O)NC3CCCC(C)C3C)C2=O)cc1 (configuration not stated) | – | inconclusive [inhibitor, partial curve]
72 | Cc1cc(C)c2[nH]c(=O)c(C(c3nnnn3CC3CCCO3)N3CCC(C)CC3)cc2c1 (configuration not stated) | inactive: -19.6% | –
